Assay results reported in patent publication US7423058B2, “Inhibitors of hepatitis C virus NS3 protease” (Schering Corporation, priority 2004, dated 2008).

Target: Recombinant heterodimeric HCV NS3/NS4A protease (strain 1a) (Hepatitis C virus genotype 1a, UniProt P27958)
Test: Spectrophotometric assay for HCV protease inhibitory activity (chromogenic ester substrates)
Assay type: biochemical
Conditions: Table 1: Ketones; read-out: Ki* Range

Row | Compound | Ki
1 | CC(C)(C)[C@H](NC(=O)N[C@H](C(=O)C1CC1)C1CCCC1)C(=O)N1C[C@H]2[C@@H]([C@H]1C(=O)NC(CC1CC1)C(=O)C(N)=O)C2(C)C (stereo partly shown) [compound 4060] | < 75 nM
2 | C=CCNC(=O)C(=O)C(CCC)NC(=O)[C@@H]1[C@@H]2[C@H](CN1C(=O)[C@@H](NC(=O)N[C@H](C(C)=O)C1CCCCC1)C(C)(C)C)C2(C)C (stereo partly shown) [compound 4124] | < 75 nM
3 | CC(C)[C@H](NC(=O)N[C@H](C(=O)N1C[C@H]2[C@@H]([C@H]1C(=O)NC(CC1CC1)C(=O)C(N)=O)C2(Cl)Cl)C(C)(C)C)C(=O)c1ccccc1 (stereo partly shown) [compound 4031] | < 75 nM
4 | C=CCNC(=O)C(=O)C(CCC)NC(=O)[C@@H]1[C@@H]2[C@H](CN1C(=O)[C@@H](NC(=O)N[C@H](C(=O)C(C)C)C1CCCCC1)C(C)(C)C)C2(C)C (stereo partly shown) [compound 4125] | < 75 nM
5 | CC(C)[C@H](NC(=O)N[C@H](C(=O)N1C[C@H]2[C@@H]([C@H]1C(=O)NC(CC1CC1)C(=O)C(N)=O)C2(C)C)C(C)(C)C)C(=O)c1ccccc1 (stereo partly shown) [compound 4010] | < 75 nM
6 | C=CCNC(=O)C(=O)[C@H](CCC)NC(=O)[C@@H]1[C@@H]2[C@H](CN1C(=O)[C@@H](NC(=O)N[C@H](C(=O)C1CC1)C(C)C)C(C)(C)C)C2(Cl)Cl [compound 4105] | < 75 nM
7 | CC(C)(C)[C@H](NC(=O)N[C@H](C(=O)c1ccccc1)C1CCCCC1)C(=O)N1C[C@H]2[C@@H]([C@H]1C(=O)NC(CC1CCC1)C(=O)C(N)=O)C2(C)C (stereo partly shown) [compound 4051] | < 75 nM

Same assay, conditions: Table 2: Oximes; read-out: Ki* Range

Row | Compound | Ki
8 | CO/N=C(\c1ccccc1)[C@@H](NC(=O)N[C@H](C(=O)N1C[C@H]2[C@@H]([C@H]1C(=O)NC(CC1CC1)C(=O)C(N)=O)C2(C)C)C(C)(C)C)C(C)C (stereo partly shown) [compound 4289] | < 75 nM

Same assay, conditions: Table 3, Esters; read-out: Ki* Range

Row | Compound | Ki
9 | CC(C)(C)[C@@H](NC(=O)N[C@@H](C(=O)N1C[C@H]2[C@@H]([C@H]1C(=O)NC(CC1CC1)C(=O)C(N)=O)C2(Cl)Cl)C(C)(C)C)C(=O)OC1Cc2ccccc2C1 (stereo partly shown) [compound 4449] | < 75 nM
10 | CC(C)[C@H](NC(=O)N[C@H](C(=O)N1C[C@H]2[C@@H]([C@H]1C(=O)NC(CC1CCC1)C(=O)C(N)=O)C2(C)C)C(C)(C)C)C(=O)OC1Cc2ccccc2C1 (stereo partly shown) [compound 4490] | < 75 nM
11 | CC(C)(C)C[C@H](NC(=O)N[C@H](C(=O)N1C[C@H]2[C@@H]([C@H]1C(=O)NC(CC1CC1)C(=O)C(N)=O)C2(C)C)C(C)(C)C)C(=O)OCc1ccccc1 (stereo partly shown) [compound 4395] | < 75 nM
12 | CC(OC(=O)[C@H](CC(C)(C)C)NC(=O)N[C@H](C(=O)N1C[C@H]2[C@@H]([C@H]1C(=O)NC(CC1CC1)C(=O)C(N)=O)C2(C)C)C(C)(C)C)C1CC1 (stereo partly shown) [compound 4442] | < 75 nM
13 | CC(C)OC(=O)[C@@H](NC(=O)N[C@H](C(=O)N1C[C@@H]2OC(C)(C)C[C@@H]2[C@H]1C(=O)NC(CC1CC1)C(=O)C(=O)NCCC(=O)OC(C)(C)C)C1CCCCC1)C(C)(C)C (stereo partly shown) [compound 4595] | 76 to 250 nM
14 | C[C@@H]1CCCC1OC(=O)[C@@H](NC(=O)N[C@H](C(=O)N1C[C@H]2[C@@H]([C@H]1C(=O)NC(CC1CC1)C(=O)C(N)=O)C2(C)C)C(C)(C)C)C(C)(C)C (stereo partly shown) [compound 4531] | < 75 nM
15 | CC(C)(C)[C@H](NC(=O)N[C@H](C(=O)OCc1ccccc1)C1CCC1)C(=O)N1C[C@H]2[C@@H]([C@H]1C(=O)NC(CC1CCC1)C(=O)C(N)=O)C2(C)C (stereo partly shown) [compound 4350] | < 75 nM
16 | CC1(C)[C@@H]2[C@@H](C(=O)NC(CC3CCC3)C(=O)C(N)=O)N(C(=O)[C@@H](NC(=O)NC3(C(=O)OCc4ccc(-c5ccccc5)cc4)CCCCC3)C3CCCCC3)C[C@@H]21 (stereo partly shown) [compound 4665] | > 250 nM
17 | CC(OC(=O)[C@@H](NC(=O)N[C@H](C(=O)N1C[C@H]2[C@@H]([C@H]1C(=O)NC(CC1CC1)C(=O)C(N)=O)C2(Cl)Cl)C(C)(C)C)C(C)C)C1CC1 (stereo partly shown) [compound 4606] | 76 to 250 nM
18 | CC(C)[C@H](NC(=O)N[C@H](C(=O)N1C[C@H]2[C@@H]([C@H]1C(=O)NC(CC1CCC1)C(=O)C(N)=O)C2(Cl)Cl)C(C)(C)C)C(=O)OC1Cc2ccccc2C1 (stereo partly shown) [compound 4393] | < 75 nM
19 | CC(C)(C)[C@H](NC(=O)N[C@H](C(=O)N1C[C@H]2[C@@H]([C@H]1C(=O)NC(CC1CC1)C(=O)C(N)=O)C2(C)C)C(C)(C)C)C(=O)OC(C1CC1)C1CC1 (stereo partly shown) [compound 4311] | < 75 nM
20 | CC(C)(C)[C@H](NC(=O)N[C@H](C(=O)N1C[C@H]2[C@@H]([C@H]1C(=O)NC(CC1CCC1)C(=O)C(N)=O)C2(Cl)Cl)C1Cc2ccccc2C1)C(=O)OCc1ccccc1 (stereo partly shown) [compound 4515] | < 75 nM
21 | CC(C)OC(=O)[C@@H](NC(=O)N[C@H](C(=O)N1C[C@H]2[C@@H]([C@H]1C(=O)NC(CC1CC1)C(=O)C(N)=O)C2(C)C)C(C)(C)C)C(C)(C)C (stereo partly shown) [compound 4307] | < 75 nM
22 | CCCCC(NC(=O)[C@@H]1[C@@H]2[C@H](CN1C(=O)[C@@H](NC(=O)N[C@H](C(=O)OC(C)(C)C)C(C)(C)C)C1CCCCC1)C2(C)C)C(=O)C(=O)NCCC (stereo partly shown) [compound 4577] | 76 to 250 nM
23 | C=CCNC(=O)C(=O)C(CCC)NC(=O)[C@@H]1[C@@H]2[C@H](CN1C(=O)[C@@H](NC(=O)N[C@H](C(=O)OCC=C)C(C)C)C(C)(C)C)C2(C)C (stereo partly shown) [compound 4474] | < 75 nM
24 | C=CCNC(=O)C(=O)C(CCC)NC(=O)[C@@H]1[C@@H]2[C@H](CN1C(=O)[C@@H](NC(=O)N[C@H](C(=O)OCC1CC1)C(C)C)C(C)(C)C)C2(C)C (stereo partly shown) [compound 4380] | < 75 nM
25 | CC(C)(C)C[C@H](NC(=O)N[C@H](C(=O)N1C[C@H]2[C@@H]([C@H]1C(=O)NC(CC1CCC1)C(=O)C(N)=O)C2(C)C)C(C)(C)C)C(=O)OCc1ccccc1 (stereo partly shown) [compound 4623] | 76 to 250 nM
26 | CC(C)(C)[C@H](NC(=O)NC1(C(=O)OCc2ccccc2)CCCCC1)C(=O)N1C[C@H]2[C@@H]([C@H]1C(=O)NC(CC1CC1)C(=O)C(N)=O)C2(Cl)Cl (stereo partly shown) [compound 4605] | 76 to 250 nM
27 | C[C@H](OC(=O)[C@@H](NC(=O)N[C@H](C(=O)N1C[C@H]2[C@@H]([C@H]1C(=O)NC(CC1CC1)C(=O)C(N)=O)C2(Cl)Cl)C(C)(C)C)C(C)(C)C)c1ccccc1 (stereo partly shown) [compound 4436] | < 75 nM
28 | CNC(=O)C(=O)C(CC1CC1)NC(=O)[C@@H]1[C@@H]2[C@H](CN1C(=O)[C@@H](NC(=O)N[C@H](C(=O)O[C@H](C)c1ccccc1)C(C)(C)C)C(C)(C)C)C2(C)C (stereo partly shown) [compound 4584] | 76 to 250 nM
29 | C=CCNC(=O)C(=O)C(CCC)NC(=O)[C@@H]1[C@H]2CC(C)(C)O[C@H]2CN1C(=O)[C@@H](NC(=O)N[C@H](C(=O)OCc1ccco1)C(C)C)C(C)(C)C (stereo partly shown) [compound 4558] | 76 to 250 nM
30 | C=CCNC(=O)C(=O)C(CCCC)NC(=O)[C@@H]1[C@@H]2[C@H](CN1C(=O)[C@@H](NC(=O)N[C@H](C(=O)OC1Cc3ccccc3C1)C(C)C)C(C)(C)C)C2(C)C (stereo partly shown) [compound 4614] | 76 to 250 nM

Same assay, conditions: Table 5: Amides; read-out: Ki* Range

Row | Compound | Ki
31 | CC[C@H](NC(=O)N[C@H](C(=O)N1C[C@H]2[C@@H]([C@H]1C(=O)NC(CC1CC1)C(=O)C(N)=O)C2(C)C)C(C)(C)C)C(=O)OC(C)(C)C (stereo partly shown) [compound 4857] | < 75 nM

Same assay, conditions: Table 6; read-out: Ki* range

Row | Compound | Ki
32 | C#CCCC(NC(=O)[C@@H]1[C@@H]2[C@H](CN1C(=O)[C@@H](NC(=O)NC1(Cc3ccccn3)CCCCC1)C(C)(C)C)C2(C)C)C(=O)C(=O)NCC=C (stereo partly shown) [compound 4946] | < 75 nM
33 | CC(C)(C)[C@H](NC(=O)NC1(Cc2ccccn2)CCCCC1)C(=O)N1C[C@H]2[C@@H]([C@H]1C(=O)NC(CC1CC1)C(=O)C(N)=O)C21CC1 (stereo partly shown) [compound 4965] | 76 to 250 nM

Same assay, conditions: Table 8; read-out: Ki*

Row | Compound | Ki
34 | C#CCCC(NC(=O)[C@@H]1[C@@H]2[C@H](CN1C(=O)[C@@H](NC(=O)N[C@H](C(=O)c1ccccc1)C(C)C)C(C)(C)C)C2(C)C)C(=O)C(=O)NCC=C (stereo partly shown) [drawing 1482] | 13 nM
